The supplement of paper PMC9446081
The campaign covered roughly 39,000 compounds. About 220 (0.56%) showed activity. This is one part of the list.

Each molecule was assayed on Escherichia coli K-12 BW25113 (assay: relative growth (OD600 normalised to plate interquartile mean) (fraction); higher = less growth inhibition, active = 0.2 or less). Conditions: 50 µM; LB; incubation time: overnight (16-24 h).
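Further: static incubation at 37 °C against the wild-type strain, values averaged over two biological replicates.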

Question: `C[C@@H]1CN([C@H](C)CO)C(=O)Cc2cc(NS(=O)(=O)c3cn(C)cn3)ccc2O[C@@H]1CN(C)C(=O)NC1CCCCC1` was tested. Which relative growth did it give?
Answer: inactive: 1

Question: With `CC(=O)Oc1ccc(-c2cc(=O)c3c(OC(C)=O)cc(OC(C)=O)cc3o2)cc1` as the molecule, how does the relative growth read?
Answer: inactive: 0.979

Question: Which relative growth does the source give for `COCCN1C(=O)C[C@@H]2[C@@H]1CCN2C(=O)c1csnn1` here?
Answer: inactive: 0.968

Question: With `CCCCCCCCCCCCCCCC[N+](C)(C)CCN(Cc1ccc(OC)cc1)c1ncccn1` as the molecule, how does the relative growth read?
Answer: inactive: 0.555

Question: With `C[C@H](CO)N1C[C@H](C)[C@@H](CN(C)C(=O)Cc2ccccc2)OCCCC[C@H](C)Oc2ccc(NC(=O)Nc3ccc4c(c3)OCO4)cc2C1=O` as the molecule, how does the relative growth read?
Answer: inactive: 1.05

Question: `C[C@@H]1CN([C@H](C)CO)C(=O)c2cc(NC(=O)Nc3ccc(C(F)(F)F)cc3)ccc2O[C@@H]1CN(C)Cc1ccc(C(=O)Nc2ccccc2N)cc1` was tested. Which relative growth did it give?
Answer: inactive: 0.977

Question: With `C[C@H]1CN([C@@H](C)CO)C(=O)c2cccc(NC(=O)C3CC3)c2O[C@@H]1CN(C)S(=O)(=O)c1ccc(Cl)cc1` as the molecule, how does the relative growth read?
Answer: inactive: 1

Question: `COCC1=C(C(=O)OC(C)OC(=O)OC(C)C)N2C(=O)C(NC(=O)C(=NOC)c3csc(N)n3)C2SC1` (configuration not stated) was tested. Which relative growth did it give?
Answer: inactive: 0.551

Question: Which relative growth does the source give for `C[C@H]1CN([C@@H](C)CO)C(=O)c2c(c3ccccc3n2C)-c2ccccc2CO[C@@H]1CN(C)C(=O)CCC(F)(F)F` here?
Answer: inactive: 0.991

Question: For `CC(C)NC(=O)N(C)C[C@H]1Oc2ccc(NC(=O)CCCN(C)C)cc2CC(=O)N([C@@H](C)CO)C[C@@H]1C`, which relative growth is on record?
Answer: inactive: 0.987

Question: Which relative growth does the source give for `C[C@H]1CN([C@@H](C)CO)C(=O)c2cccc(NC(=O)c3cnccn3)c2O[C@H]1CN(C)Cc1ccc(C(=O)O)cc1` here?
Answer: inactive: 1

Question: Which relative growth does the source give for `C[C@@H]1CN([C@H](C)CO)C(=O)c2cc(NS(C)(=O)=O)ccc2O[C@@H]1CN(C)S(=O)(=O)c1ccc(F)cc1` here?
Answer: inactive: 0.991

Question: `C[C@@H]1CCCCO[C@H](CN(C)C(=O)CCC(F)(F)F)[C@@H](C)CN([C@H](C)CO)C(=O)c2cc(NC(=O)Nc3ccc4c(c3)OCO4)ccc2O1` was tested. Which relative growth did it give?
Answer: inactive: 0.976

Question: For `C[C@@H]1CN([C@@H](C)CO)C(=O)CCCn2nncc2CO[C@@H]1CN(C)S(=O)(=O)c1ccc(C#N)cc1`, which relative growth is on record?
Answer: inactive: 1.01

Question: Which relative growth does the source give for `C[C@H](CO)N1C[C@H](C)[C@H](CN(C)C(=O)Nc2ccc3c(c2)OCO3)OCCCC[C@H](C)Oc2ccc(NC(=O)c3ccccc3)cc2C1=O` here?
Answer: inactive: 1.05

Question: Which relative growth does the source give for `Cc1noc(C)c1S(=O)(=O)Nc1ccc2c(c1)C(=O)N([C@@H](C)CO)C[C@@H](C)[C@@H](CN(C)S(=O)(=O)c1ccc(F)cc1)O2` here?
Answer: inactive: 1

Question: `C[C@H](CO)N1C[C@H](C)[C@@H](CN(C)S(=O)(=O)c2ccc(-n3cccn3)cc2)OCc2cnnn2CCCC1=O` was tested. Which relative growth did it give?
Answer: inactive: 0.997

Question: For `O=C(Cn1nncc1COc1ccc2ccccc2c1)NS(=O)(=O)c1ccccc1OC(F)(F)F`, which relative growth is on record?
Answer: inactive: 0.988

Question: `COc1ccc(S(=O)(=O)Nc2ccc3c(c2)C(=O)N([C@H](C)CO)C[C@@H](C)[C@H](CN(C)S(=O)(=O)c2ccc(F)cc2)O3)cc1` was tested. Which relative growth did it give?
Answer: inactive: 1.01

Question: How did the relative growth turn out when `C[C@@H]1CN([C@H](C)CO)C(=O)c2cc(NS(=O)(=O)c3ccc(Cl)cc3)ccc2O[C@@H](C)CCCCO[C@H]1CN(C)S(=O)(=O)c1ccc(Cl)cc1` was run?
Answer: inactive: 0.993

Question: With `CCOc1nc2cccc(C(=O)OC(C)OC(=O)OC3CCCCC3)c2n1Cc1ccc(-c2ccccc2-c2nnn[nH]2)cc1` (configuration not stated) as the molecule, how does the relative growth read?
Answer: inactive: 0.795

Question: Which relative growth does the source give for `COc1ccc(cc1)CN1CC[C@]2(CC1)CN([C@H](CO)c1[nH]c3cc(ccc3c12)OC)C(=O)CN(C)C` here?
Answer: inactive: 0.98

Question: Which relative growth does the source give for `COC(=O)C1=C(C)NC(C)=C(C(=O)OCCN2CCN(C(c3ccccc3)c3ccccc3)CC2)C1c1cccc([N+](=O)[O-])c1` (configuration not stated) here?
Answer: inactive: 1.17

Question: For `Cn1nnc2c(N3CCCC3)ncnc21`, which relative growth is on record?
Answer: inactive: 1

Question: For `Cc1noc(C)c1S(=O)(=O)N(C)C[C@H]1Oc2ccc(NC(=O)NC(C)C)cc2CC(=O)N([C@H](C)CO)C[C@@H]1C`, which relative growth is on record?
Answer: inactive: 0.962

Question: With `C[C@@H]1CCCCO[C@H](CN(C)Cc2ccc(C(=O)O)cc2)[C@@H](C)CN([C@@H](C)CO)C(=O)c2cc(NC(=O)CCC(F)(F)F)ccc2O1` as the molecule, how does the relative growth read?
Answer: inactive: 1.02

Question: Which relative growth does the source give for `CC(C)NC(=O)N(C)C[C@@H]1Oc2c(NC(=O)C3CCOCC3)cccc2C(=O)N([C@@H](C)CO)C[C@H]1C` here?
Answer: inactive: 0.977

Question: For `C[C@@H]1CCCCO[C@H](CN(C)C(=O)NC2CCCCC2)[C@@H](C)CN([C@H](C)CO)C(=O)c2cc(NC(=O)Nc3ccc(F)cc3)ccc2O1`, which relative growth is on record?
Answer: inactive: 0.984

Question: For `COCCCNC(=O)C[C@H]1SC(=N)NC1=O`, which relative growth is on record?
Answer: inactive: 1.02

Question: For `Cc1ccc(C)c(Cc2cc(Cl)ccc2Cl)c1`, which relative growth is on record?
Answer: inactive: 0.891

Question: With `C[C@@H]1CCCCO[C@@H](CN(C)S(=O)(=O)c2cccs2)[C@@H](C)CN([C@H](C)CO)C(=O)c2cc(NS(C)(=O)=O)ccc2O1` as the molecule, how does the relative growth read?
Answer: inactive: 0.943

Question: With `Cc1noc(C)c1S(=O)(=O)Nc1ccc2c(c1)CC(=O)N([C@@H](C)CO)C[C@@H](C)[C@H](CN(C)Cc1ccncc1)O2` as the molecule, how does the relative growth read?
Answer: inactive: 0.998

Question: `C[C@H](CO)N1C[C@H](C)[C@@H](CN(C)C(=O)Cc2ccccc2)OCCCC[C@H](C)Oc2ccc(NS(=O)(=O)c3ccc(F)cc3)cc2C1=O` was tested. Which relative growth did it give?
Answer: inactive: 0.992

Question: Which relative growth does the source give for `C[C@@H]1CN([C@@H](C)CO)C(=O)c2cc(NC(=O)C3CCCCC3)ccc2O[C@H]1CN(C)Cc1ccc(C(F)(F)F)cc1` here?
Answer: inactive: 1.03

Question: `Cc1noc(C)c1NC(=O)Nc1ccc2c(c1)C(=O)N([C@H](C)CO)C[C@H](C)[C@H](CN(C)Cc1ccc(Cl)c(Cl)c1)OCCCC[C@H](C)O2` was tested. Which relative growth did it give?
Answer: inactive: 1.02

Question: How did the relative growth turn out when `C[C@@H]1CN([C@@H](C)CO)C(=O)c2cccc(NC(=O)C3CC3)c2O[C@H]1CN(C)C(=O)Nc1ccc2c(c1)OCO2` was run?
Answer: inactive: 1

Question: How did the relative growth turn out when `COc1cc2c(cc1OC)CN(C(=O)[C@H]1[C@@H]3C(=O)O[C@@H](c4ccccc4)[C@@H](c4ccccc4)N3[C@@H](c3ccc(O)cc3)[C@]13C(=O)Nc1ccc(C#CC4(O)CCCCCC4)cc13)CC2` was run?
Answer: inactive: 1.03
